Experimental data from paper PMC4336329 (PLoS ONE, 2015).
Out of some 310,000 compounds screened, about 14,000 (4.5%) showed an effect of 50% or more. The effect is printed as a negative number. Some of the results follow.
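Further: peak tail current of the secondary pulse compared with the same well before compound.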

What follows are compounds tested against human ether-à-go-go-related gene (hERG) potassium channel (human, UniProt Q12809) (assay: primary screen, population patch clamp on CHO cells stably expressing hERG).
human ether-à-go-go-related gene (hERG) potassium channel, sequence (Q12809 whole entry, looked up): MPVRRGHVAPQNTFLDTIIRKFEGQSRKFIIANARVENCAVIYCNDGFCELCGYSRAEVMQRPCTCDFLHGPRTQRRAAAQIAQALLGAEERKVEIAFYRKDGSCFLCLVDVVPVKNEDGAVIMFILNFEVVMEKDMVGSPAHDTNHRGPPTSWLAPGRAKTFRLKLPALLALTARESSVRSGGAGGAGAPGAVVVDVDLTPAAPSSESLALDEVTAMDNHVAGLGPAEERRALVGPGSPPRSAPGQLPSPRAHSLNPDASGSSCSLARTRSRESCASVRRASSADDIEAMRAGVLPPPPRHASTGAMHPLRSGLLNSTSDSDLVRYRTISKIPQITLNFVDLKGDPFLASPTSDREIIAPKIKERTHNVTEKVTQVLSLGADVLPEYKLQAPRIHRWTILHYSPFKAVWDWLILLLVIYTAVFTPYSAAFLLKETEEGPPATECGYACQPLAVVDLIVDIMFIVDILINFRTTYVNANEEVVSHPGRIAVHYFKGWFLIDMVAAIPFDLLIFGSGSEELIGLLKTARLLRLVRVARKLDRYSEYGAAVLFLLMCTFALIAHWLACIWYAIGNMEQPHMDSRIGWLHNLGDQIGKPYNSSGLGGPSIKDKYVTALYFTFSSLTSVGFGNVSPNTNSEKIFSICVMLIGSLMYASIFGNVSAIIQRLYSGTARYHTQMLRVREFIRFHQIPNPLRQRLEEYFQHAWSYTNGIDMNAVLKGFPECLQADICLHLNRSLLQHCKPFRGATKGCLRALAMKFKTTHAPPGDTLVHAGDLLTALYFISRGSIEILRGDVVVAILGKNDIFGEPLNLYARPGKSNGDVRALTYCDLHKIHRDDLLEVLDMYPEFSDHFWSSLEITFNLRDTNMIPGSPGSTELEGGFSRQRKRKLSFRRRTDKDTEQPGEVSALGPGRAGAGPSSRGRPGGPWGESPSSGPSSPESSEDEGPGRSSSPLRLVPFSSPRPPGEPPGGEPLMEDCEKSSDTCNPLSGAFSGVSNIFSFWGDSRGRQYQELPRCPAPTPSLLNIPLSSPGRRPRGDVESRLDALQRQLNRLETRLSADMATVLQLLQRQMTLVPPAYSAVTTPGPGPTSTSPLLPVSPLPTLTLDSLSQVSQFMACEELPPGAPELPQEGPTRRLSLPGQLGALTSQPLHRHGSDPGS
For Cc1cc(C)c(OCCCCNCc2ccccc2)c(Cl)c1.O=C(O)C(=O)O, the “hERG current change (%, negative = inhibition) at 10uM” value was -68.5%.
COc1ccccc1-n1c(C)nnc1SCC(=O)Nc1cccc(C(C)=O)c1 was tested, and the “hERG current change (%, negative = inhibition) at 10uM” value was -4.67%.
COc1cc(C2NC(=S)NC(C)=C2C(=O)c2ccccc2)ccc1O (stereo not shown) was tested, and the “hERG current change (%, negative = inhibition) at 10uM” value was 5.4%.
With CCC(=O)Nc1ccc2c(c1)nc(CN1CCCCC1)n2C the “hERG current change (%, negative = inhibition) at 10uM” value was 15%.
In the case of CC1(C)CC(=O)c2c(nn(-c3ccccc3)c2-c2ccncc2)C1, the “hERG current change (%, negative = inhibition) at 10uM” value is reported as -1.35%.
In the case of Cc1ccc(OCC(=O)Nc2cccc(S(=O)(=O)N3CCCCCC3)c2)cc1C, the “hERG current change (%, negative = inhibition) at 10uM” value is reported as 14.7%.
For CN(n1cnc2ccccc2c1=O)S(C)(=O)=O, the “hERG current change (%, negative = inhibition) at 10uM” value was 9.81%.
For CSc1nc2c(c(=O)n1C)SC(C)C2 (stereo not shown), the “hERG current change (%, negative = inhibition) at 10uM” value was 4.31%.
With O=CN1CCc2scc[n+]2-c2ccccc21.[Br-] the “hERG current change (%, negative = inhibition) at 10uM” value was 35.2%.
With COc1cc2c(cc1OC)CN(CC(=O)Nc1ccccc1SC)CC2 the “hERG current change (%, negative = inhibition) at 10uM” value was -14%.
In the case of CCCCn1c(N)c(N(CCC(C)C)C(=O)C2=COCCO2)c(=O)[nH]c1=O, the “hERG current change (%, negative = inhibition) at 10uM” value is reported as 11.1%.
O=C(NCc1cccs1)c1cc(-c2ccc(O)cc2)on1 was tested, and the “hERG current change (%, negative = inhibition) at 10uM” value was -3.59%.
With OCc1ccccc1NC(=S)Nc1cccnc1 the “hERG current change (%, negative = inhibition) at 10uM” value was -8.56%.
For COc1ccc(CCNC(=O)CNC(=O)c2ccco2)cc1, the “hERG current change (%, negative = inhibition) at 10uM” value was 5.2%.
COc1ccc(-c2noc(CN(C(=O)c3ccc(OC(C)=O)cc3)C(C)C)n2)cc1OC was tested, and the “hERG current change (%, negative = inhibition) at 10uM” value was -12.3%.
With COc1cc(/C=C\C(=O)NCc2ccc3c(c2)cc(C)n3C)cc(OC)c1OC the “hERG current change (%, negative = inhibition) at 10uM” value was 3.57%.
For COP(=O)(OC)/C(C=O)=N/Nc1ccc([N+](=O)[O-])cc1, the “hERG current change (%, negative = inhibition) at 10uM” value was -36.3%.
In the case of O=c1[nH]c(/C=C\c2ccccc2F)nc(O)c1[N+](=O)[O-], the “hERG current change (%, negative = inhibition) at 10uM” value is reported as 17.5%.
For CC(C)NC(=O)NC(=O)COC(=O)CCCSc1nc2ccccc2s1, the “hERG current change (%, negative = inhibition) at 10uM” value was 6.35%.
For CC(C)N1CCC2(CC1)NC(CO)(CO)CO2, the “hERG current change (%, negative = inhibition) at 10uM” value was 20.5%.
Cc1cc(C(=O)OCC(=O)NC(C)c2ccccc2)c(C)o1 (stereo not shown) was tested, and the “hERG current change (%, negative = inhibition) at 10uM” value was 14.9%.
N#Cc1nc(COc2ccccc2F)oc1NCCc1ccccc1 was tested, and the “hERG current change (%, negative = inhibition) at 10uM” value was -4.44%.
For CCN(Cc1ccccc1)S(=O)(=O)c1c[nH]c(C(=O)OC)c1, the “hERG current change (%, negative = inhibition) at 10uM” value was -9.39%.
O=C(COC(=O)c1cc(Br)ccc1O)Nc1cccnc1Cl was tested, and the “hERG current change (%, negative = inhibition) at 10uM” value was 2.93%.
For CC(=O)c1ccc(OCCCC(=O)NC2CCC(C)CC2)cc1 (stereo not shown), the “hERG current change (%, negative = inhibition) at 10uM” value was -3.29%.
For Cc1nccn1CC(O)COc1ccc([N+](=O)[O-])cc1 (stereo not shown), the “hERG current change (%, negative = inhibition) at 10uM” value was -66.2%.
With Cc1oc(-c2ccccc2F)nc1CS(=O)(=O)CC(=O)N1CCN(c2ccccc2)CC1 the “hERG current change (%, negative = inhibition) at 10uM” value was -5.57%.
With Cc1csc(CN(C)C(=O)C2CCC(=O)N(CCCc3ccccc3)C2)n1 (stereo not shown) the “hERG current change (%, negative = inhibition) at 10uM” value was -5.37%.
For CC(C)(C)c1ccc(-c2nnc3sc(-c4ccccn4)nn23)cc1, the “hERG current change (%, negative = inhibition) at 10uM” value was -1.22%.
O=C(NCc1ccc(Cl)cc1)c1nccnc1CO was tested, and the “hERG current change (%, negative = inhibition) at 10uM” value was 11.5%.
For COc1ccc(F)cc1S(=O)(=O)N1CCCC(C)C1 (stereo not shown), the “hERG current change (%, negative = inhibition) at 10uM” value was -11.7%.
COc1ccc(NC(=O)COc2nsnc2N2CCOCC2)cc1 was tested, and the “hERG current change (%, negative = inhibition) at 10uM” value was 17.7%.
In the case of CCCCCCCCCCCC(=O)NC(C(=O)OCC)C(O)c1cccc([N+](=O)[O-])c1 (stereo not shown), the “hERG current change (%, negative = inhibition) at 10uM” value is reported as 11.8%.
CC(=O)c1cccc(S(=O)(=O)NCC(C)(C)N2CCOCC2)c1.O=C(O)C(=O)O was tested, and the “hERG current change (%, negative = inhibition) at 10uM” value was 11.5%.
For COC(=O)CCSc1cc(NCCOC(C)=O)c([N+](=O)[O-])c2nonc12, the “hERG current change (%, negative = inhibition) at 10uM” value was -25.6%.
With COC(=O)C1=C(C)N(Cc2ccc(OC)cc2)C(=O)/C1=C\c1ccco1 the “hERG current change (%, negative = inhibition) at 10uM” value was 9.35%.
In the case of Cc1nn(C)c(C)c1S(=O)(=O)NC1CCCC1, the “hERG current change (%, negative = inhibition) at 10uM” value is reported as -12%.
O=C(O)C1CC1C(=O)N1CCN(c2ccc(Cl)c(Cl)c2)CC1 (stereo not shown) was tested, and the “hERG current change (%, negative = inhibition) at 10uM” value was 5.27%.
With N/C(CCN1CCCCC1)=N/O the “hERG current change (%, negative = inhibition) at 10uM” value was -0.58%.
CCOC(=O)C1=C(C)C2C3C(=O)N(c4cc(C)ccc4C)C(=O)C3C1(C)C1C(=O)N(c3cc(C)ccc3C)C(=O)C21 (stereo not shown) was tested, and the “hERG current change (%, negative = inhibition) at 10uM” value was 6.2%.
With Cc1ccnc(NC(=O)CNC(=O)C23CC4CC(CC(C4)C2)C3)c1 the “hERG current change (%, negative = inhibition) at 10uM” value was -8.17%.
COc1c(C)cccc1C(=O)Nc1ccc(N2CCOCC2)c(Cl)c1 was tested, and the “hERG current change (%, negative = inhibition) at 10uM” value was -21.2%.
In the case of Cn1c(=O)c2sccc2n2c(CCCC(=O)NCc3ccc(F)cc3)nnc12, the “hERG current change (%, negative = inhibition) at 10uM” value is reported as 28.9%.
COc1cc(NC(=O)CCN2CCOCC2)cc(OC)c1 was tested, and the “hERG current change (%, negative = inhibition) at 10uM” value was 21.4%.
In the case of CC(OC(=O)C1CCCCC1)C(=O)Nc1cccc([N+](=O)[O-])c1 (stereo not shown), the “hERG current change (%, negative = inhibition) at 10uM” value is reported as -4.48%.
COc1ccc(N(CC(=O)NCCC2=CCCCC2)S(=O)(=O)c2c(C)[nH]c(=O)[nH]c2=O)cc1 was tested, and the “hERG current change (%, negative = inhibition) at 10uM” value was 8.28%.
